From the supplement of paper PMC3724861
The other results are listed elsewhere or left out.

What follows are sequences tested on T1, Caupolican (Caup) homeodomain DNA-binding domain (assay: PBM E-score (8-mer, recovered from the published 9-mer minima) (E-score (dimensionless, -0.5 to 0.5)); Drosophila protein; higher = stronger relative binding preference, active = 0.31 or more).
T1 sequence: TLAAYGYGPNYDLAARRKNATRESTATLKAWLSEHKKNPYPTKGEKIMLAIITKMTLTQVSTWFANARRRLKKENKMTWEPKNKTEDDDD
Procedure, shortened: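 Caup's homeodomain DNA-binding domain (residues 214-303) was produced by in vitro transcription and translation and applied at 100 nM to custom-designed protein binding microarrays. Each value is an enrichment score giving relative binding preference for a short DNA word; higher means stronger. Published 9-mer scores were the minimum of their two constituent 8-mer scores, and the 8-mer values were recovered from those minima. A cutoff of 0.31 marks candidate binding sequences.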

PBM E-score, active:
AACATGGT 0.37, ATGTAATC 0.348

PBM E-score, ≥ 0.112:
AAGTCACT

PBM E-score, ≥ 0.161:
ATTTCACA

PBM E-score, ≥ -0.102:
ACCCCGAG

PBM E-score, ≥ 0.0883:
AATGAGTC

PBM E-score, ≥ -0.0362:
AAGAAGCT

PBM E-score, ≥ 0.137:
AATTCCGA

PBM E-score, inactive:
GTGAAACA 0.154, GGTCCATA -0.0606, ATCCTGGA 0.0324, ATGATTTC 0.102, AGGATTAA 0.0606, ATGGTCAG 0.0177, TATGAAAA 0.106, GAACTGGA -0.0731, CGCGTGAA -0.0423, GGAGCTAA -0.0711, TGAGCTAA -0.023, AGAGACAA 0.072, GATAGGCA -0.0178, CAAACTCC 0.0408, AGACTACT 0.102, ACAAATGA 0.154, ATCCTAAC 0.0821, CGAGCCGC -0.152, AGGTAAGG 0.00867, CATAGGGG -0.105, GCCGACCA -0.0914, GGACGCCA -0.254, CAATGTCG 0.227, AGCGCCTG -0.167, GACCATTA 0.0717, ACTTACAC 0.245, GCGTTGCC -0.122, CTTAGCGA -0.0584, ATGCTTAG 0.12, AACAAGCG 0.237, TACCGAAA -0.0217, CCTTACAC 0.169, TACACAGA 0.275, AGGCGGAG -0.179, GCGCAGCC -0.285, AGTCGGCA -0.0483, ATTGTTCC 0.112, AGAGATTG -0.00602, AGAGCTGA -0.0558, AAGCTCGG -0.125, ACCGCTTA -0.00038, TAGGAAAA 0.00072, CTCCTAAA -0.0143, CAATATTA 0.201, CGCCATTA -0.0602, CTGCAAAC 0.0559, CAGCAAGA -0.057, AATCGCTG -0.0321, CGAATGTA 0.226, AATCCCCC -0.256, GCGGCAAA -0.123, CCGTCTTA -0.142, GACTTGAC 0.0181, AATGAAGC -0.0494, CCCTGTCC -0.0132, AACCAACG -0.0341, TATTTCGA 0.126, GGTGGTAC 0.00466, AGACACCG -0.0063, ACCCATGC 0.0153, TCATCAGA 0.0447, AAGATCTC -0.0207, GGGAACAC 0.112, CGACCAAC 0.00225, AATACTAG 0.189, ACGGGGCC -0.282, CTCGATCC -0.0894, CTTTAAGC -0.091, CTCTACCC -0.131, GAGGAAGC -0.229, ATGACAGC 0.202, CTCAGCTC -0.205, CCTCCCTA -0.196, GATGGAGA -0.0438, CAGATGTC 0.253, ACTCCCGG -0.138, CACACGTC 0.128, CCCCGTAC -0.201, GGCTGCCA -0.145, AACGGAGC -0.15, AGATCTGG -0.0563, AGAGATTC 0.0693, GGCAACAA 0.153, TAGTTATA 0.209, ACGGTGCG -0.0331, GTCAATTA 0.0898, ACACGAAA 0.208, CGCGATCC -0.0878, GACAATGC 0.133, GAGATCCA -0.0672, CTTACAAA 0.181, ACCGCCGA -0.0752, ACATGCCT 0.254, TATTGTCA 0.225, ATTCTGAG -0.0481, GTCACTGA 0.0354, CATCTTCG -0.0302, AGGACTTC -0.0992, AAACAAGA 0.3, AGACCACG -0.151, GTGGAAAA 0.0388, GTGCGAAA 0.0321, CCAGCGTC -0.225, CACTCATC 0.0214, CGCGCCAC -0.154, AGACCCAA -0.131, CAAAACCC -0.0398, AGTAGCAA 0.0952, GGTGAGTA 0.0634, AGCAGCGC -0.15, CGGGAACG -0.259, AGGCCTGC -0.156, AGTCCTCG -0.00545, GGAGCGGA -0.197, AAGTGTGG -0.0403, CATCGACA 0.112, CATGAATA 0.159, ACACACTC 0.189, AACGCCTA 0.0206, GACGCATA -0.00306, ACCATTGG -0.017, ACTCCCTC -0.198, ACTGACGG -0.187, AACTTGGC -0.0399, AGCCTGAA -0.098, ATGCTCGC -0.0878, CTAACTAA 0.029, AAATCCCC -0.139, CCAGAGCG -0.227, ACGTCTAC 0.054, CCTGGACC -0.0439, ATCGGAAC 0.0456, ACCCCACG -0.196, GCGCTAAC -0.0781, CAGGCAAA 0.0265
